From the supplement of paper PMC12297408
Where a name gives a salt, the structure may show the parent alone. Out of some 1,300 compounds screened, about 40 (3%) showed activity. The list shows a part of the results.

Test system: Plasmodium falciparum NF54/iGP1_RE9H ulg8 stage V gametocytes
Test: gametocyte viability (luciferase signal relative to DMSO control) (% of DMSO control); higher = less gametocytocidal activity, active = 50 or less
Conditions: exposure time: 72 h
In short: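 NF54/iGP1_RE9Hulg8 stage V gametocytes (day 12; ~2.5% gametocytemia, 3% hematocrit) in medium with 0.5% Albumax II were added to 96-well plates of nanolitre-spotted compounds (10 mM DMSO stocks), giving 10 µM or 1 µM, one well each. Plates were incubated 72 h at 37 °C. Then 90 µl was mixed with 10 µl D-luciferin (30 mg/ml) and luminescence was read on an IVIS Lumina II. Viability is relative to the mean of plate DMSO vehicle controls.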

| Compound | gametocyte viability (concentration: 1 µM) | gametocyte viability (concentration: 10 µM) |
| --- | --- | --- |
| Clc1ccc(CO/N=C(\Cn2ccnc2)c2ccc(Cl)cc2Cl)c(Cl)c1 [Oxiconazole Nitrate] | inactive: 83.7 | inactive: 59.4 |
| CC(=O)O[C@]1(C(C)=O)CC[C@H]2[C@@H]3C=C(Cl)C4=CC(=O)[C@@H]5C[C@@H]5[C@]4(C)[C@H]3CC[C@@]21C [Cyproterone acetate] | inactive: 95.4 | inactive: 93 |
| Clc1ccc(Cn2c(CN3CCCC3)nc3ccccc32)cc1 [Clemizole hydrochloride] | inactive: 85.4 | inactive: 91.7 |
| COc1cc2nc(N(C)CCCNC(=O)C3CCCO3)nc(N)c2cc1OC (centres undefined) [Alfuzosin hydrochloride] | inactive: 87.7 | inactive: 83 |
| N=C(N)NC(=O)Cc1c(Cl)cccc1Cl [Guanfacine hydrochloride] | inactive: 81.7 | inactive: 76.9 |
| Clc1ccc(CSC(Cn2ccnc2)c2ccc(Cl)cc2Cl)cc1 (centres undefined) [Sulconazole nitrate] | inactive: 95.6 | inactive: 68.9 |
| CC1CNc2c(cccc2S(=O)(=O)N[C@@H](CCCNC(=N)N)C(=O)N2CC[C@@H](C)C[C@@H]2C(=O)O)C1 (some centres undefined) [Argatroban] | inactive: 91.7 | inactive: 77.5 |
| CN(C)CCN(Cc1ccccc1)c1ccccn1 [Tripelennamine hydrochloride] | inactive: 89.8 | inactive: 61 |
| Nc1ccn([C@@H]2O[C@H](CO)[C@@H](O)C2(F)F)c(=O)n1 [Gemcitabine] | inactive: 81.3 | inactive: 85.5 |
| CN1C(=O)CC(c2ccccc2)C1=O (centres undefined) [Phensuximide] | inactive: 87.7 | inactive: 83.1 |
| CC(=O)O[C@@]12CO[C@@H]1C[C@H](O)[C@@]1(C)C(=O)[C@H](O)C3=C(C)[C@@H](OC(=O)[C@H](O)[C@@H](NC(=O)OC(C)(C)C)c4ccccc4)C[C@@](O)([C@@H](OC(=O)c4ccccc4)[C@H]21)C3(C)C [Docetaxel] | inactive: 127 | inactive: 117 |
| C[C@]12CC[C@@H]3c4ccc(O)cc4CC[C@H]3[C@@H]1CC[C@@H]2O [Estradiol-17 beta] | inactive: 69.7 | active: 41.9 |
| CCCN(CCC)S(=O)(=O)c1ccc(C(=O)O)cc1 [Probenecid] | inactive: 87.8 | inactive: 84.1 |
| CN(C)c1cc(NC(=O)CNC(C)(C)C)c(O)c2c1C[C@H]1C[C@H]3[C@H](N(C)C)C(=O)C(C(N)=O)=C(O)[C@@]3(O)C(=O)C1=C2O [Tigecycline] | inactive: 86.6 | inactive: 87.9 |
| CC(=O)[C@H]1CC[C@H]2[C@@H]3CCC4=CC(=O)CC[C@]4(C)[C@H]3CC[C@]12C [Progesterone] | inactive: 86.2 | inactive: 83.1 |
| CN(C)CC/C=C1/c2ccccc2Sc2ccc(Cl)cc21 [Chlorprothixene hydrochloride] | inactive: 97.1 | inactive: 84.1 |
| NC(Cc1cc(I)c(Oc2cc(I)c(O)c(I)c2)c(I)c1)C(=O)O (centres undefined) [Thyroxine (L)] | inactive: 80.3 | inactive: 84.2 |
| CN(C)CCOC(c1ccccc1)c1ccccc1 [Diphenhydramine hydrochloride] | inactive: 91.2 | inactive: 92.6 |
| COc1ccc2[nH]c([S+]([O-])Cc3ncc(C)c(OC)c3C)nc2n1 (centres undefined) [Tenatoprazole] | inactive: 90.8 | inactive: 79.8 |
| Oc1ncnc2[nH]ncc12 [Allopurinol] | inactive: 80.4 | inactive: 84.1 |
| CNCCCC1c2ccccc2C=Cc2ccccc21 [Protriptyline hydrochloride] | inactive: 82.3 | inactive: 82.5 |
| CCCCCCC[N+](CC)(CC)CCCCc1ccc(Cl)cc1 [Clofilium tosylate] | inactive: 97.3 | active: 47.8 |
| C[C@]12CCC(=O)C=C1CC[C@@H]1[C@@H]2[C@@H](O)C[C@@]2(C)[C@H]1CC[C@]2(O)C(=O)CO [Hydrocortisone base] | inactive: 91.6 | inactive: 94.7 |
| CCCc1cc(=O)[nH]c(=S)[nH]1 [Propylthiouracil] | inactive: 91.1 | inactive: 86.6 |
| COc1ccc(CCN(C)CCCC(C#N)(c2ccc(OC)c(OC)c2)C(C)C)cc1OC (centres undefined) [Verapamil hydrochloride] | inactive: 91.8 | inactive: 99.3 |
| Cc1onc(-c2ccccc2)c1-c1ccc(S(N)(=O)=O)cc1 [Valdecoxib] | inactive: 81.3 | inactive: 77.3 |
| C[N+]1(CCCCC[N+]2(C)CCCC2)CCCC1 [Pentolinium bitartrate] | inactive: 93.5 | inactive: 96.4 |
